# Out of some 110,000 compounds screened, about 230 (0.21%) showed an effect of 50% or more. Some of the results follow.
# Biological target: DPAP1 (Plasmodium falciparum, UniProt Q8IIJ9)
# Experiment: primary screen, percent inhibition; read by cleavage of a fluorogenic dipeptide substrate; higher = more effect of the substance
# Parameters: species or system P. falciparum D10 trophozoite lysates; single well
# 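Also: 30 min substrate incubation versus DMSO and 10 µM JCP410 controls.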
# Sequence of DPAP1 (Q8IIJ9 whole entry, looked up): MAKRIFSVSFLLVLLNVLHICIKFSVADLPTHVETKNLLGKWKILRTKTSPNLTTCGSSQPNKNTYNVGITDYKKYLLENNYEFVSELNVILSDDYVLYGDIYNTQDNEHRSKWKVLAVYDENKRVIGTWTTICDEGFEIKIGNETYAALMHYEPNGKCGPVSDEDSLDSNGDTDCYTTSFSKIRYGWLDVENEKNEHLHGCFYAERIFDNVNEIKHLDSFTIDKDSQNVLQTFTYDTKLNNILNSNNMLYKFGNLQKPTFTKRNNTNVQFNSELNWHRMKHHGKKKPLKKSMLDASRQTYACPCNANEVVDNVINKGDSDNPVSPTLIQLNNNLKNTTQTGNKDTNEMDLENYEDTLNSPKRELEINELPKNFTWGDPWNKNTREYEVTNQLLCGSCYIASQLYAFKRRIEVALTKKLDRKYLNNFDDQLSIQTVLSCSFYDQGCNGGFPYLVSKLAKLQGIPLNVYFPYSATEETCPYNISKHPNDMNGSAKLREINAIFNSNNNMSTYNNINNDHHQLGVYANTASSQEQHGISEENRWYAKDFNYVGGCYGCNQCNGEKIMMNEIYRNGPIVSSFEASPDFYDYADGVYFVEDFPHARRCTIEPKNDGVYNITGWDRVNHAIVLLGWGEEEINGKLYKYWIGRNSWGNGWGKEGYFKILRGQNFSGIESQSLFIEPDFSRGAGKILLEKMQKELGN
row,SMILES,% Inhibition @ 10 uM
1,CN(Cc1ccccc1)C(=O)Cn1nnc2sc3c(c2c1=O)CCCC3,0.758%
2,CCOc1cc(C2Nc3ccccc3N=C3CC(c4cccs4)CC(O)=C32)ccc1OC (stereo not drawn),4.11%
3,O=C(N1CCn2c3c(c4cc(C5CCCCC5)ccc42)CCCC31)C12CC3CC(CC(C3)C1)C2 (stereo not drawn),-7.07%
4,Cc1ccc(CNC(=O)CN(C)S(=O)(=O)c2ccc3nc(C)sc3c2)cc1,-2.25%
5,O=C1C2C=COC2C2c3ccccc3CCC2N1Cc1ccccc1 (stereo not drawn),0.727%
6,COC(=O)c1cc(S(=O)(=O)N2CCN(Cc3ccccc3)CC2)cn1C,3.92%
7,CCC(CC)C(=O)Nc1cccc(C(C)=O)c1,5.24%
8,Cn1ncc([N+](=O)[O-])c1C(=O)Nc1ccc(C(=O)O)cc1,-0.216%
9,COc1ccc(CCc2nc(C)cc(CN(C)C)c2O)cc1OC,1.54%
10,O=C(Nc1nn2c(-c3ccco3)nnc2s1)c1ccccc1,32.4%
11,Cc1cccc(C(=O)Nc2sc3c(c2C(=O)N(C)C)CCCCC3)c1,1.03%
12,CC(C)CC(NC(=O)c1cnc(-c2ccncc2)s1)C(=O)NCC#N (stereo not drawn),-3.97%
13,CCN1CCc2c(sc(N)c2C(=O)OC)C1,-0.0309%
14,CCCCc1nn2c(=O)cc(CSc3n[nH]c(CC(C)C)n3)nc2s1,-4.14%
15,CC(=O)NC1=NC(=O)CC(c2ccccc2Cl)N1 (stereo not drawn),0.331%
16,CCNC(=S)N1CCc2cc(OC)c(OC)cc2C1COc1ccc(F)cc1 (stereo not drawn),4.37%
17,N#Cc1c(N)nc2c(c1-c1ccc(Cl)cc1)CCC2,30%
18,Cc1cc(C)c2nc(N3CCC(C(=O)NCCCN4C(C)CCCC4C)CC3)sc2c1 (stereo not drawn),0.137%
19,CCNC(=S)NCCc1c(C)[nH]c2ccc(C)cc12,-2.16%
20,CCNCC(O)COc1ccccc1 (stereo not drawn),-2.91%
21,OCCN(Cc1ccccc1)Cc1c(F)cccc1Cl,-3.27%
22,CC1CCCC(C)N1CCCNC(=O)C1CCN(c2ncnc3c2nc2n3CCCCC2)CC1 (stereo not drawn),-2.46%
23,CCOC(=O)c1cc(C(=O)NCc2ccccc2)c(O)nc1C,4.1%
24,CC(=O)Nc1ccc(C2(C#N)CCCC2)cc1,5.31%
25,Cc1ccnc(N2COc3ccc4c(-c5ccccc5)cc(=O)oc4c3C2)c1,-3.9%
26,CN1CCN(c2ccc(NC(=O)c3ccc(Cl)cc3Cl)cc2)CC1,2.43%

row,SMILES,% Inhibition @ 10 uM
1,Cc1noc(C)c1CCNC(=O)CCc1c(C)nc2c(c1C)c(=O)n(C)c(=O)n2C,3.75%
2,O=C(c1ccccc1F)N1CCN(Cc2cccc3ccccc23)CC1,-2.94%
3,CCN(CC)CC(C)CNC(=O)C1CCN(S(=O)(=O)CC)CC1 (stereo not drawn),-4.83%
4,CC(C)(C)C1CCc2c(sc(N)c2C(N)=O)C1 (stereo not drawn),15.5%
5,O=c1/c(=C/c2ccco2)sc2nc(-c3cccs3)nn12,-1.52%
6,CCOC(=O)N1CCN(C(=O)C2CCN(C(=O)c3ccccc3C)CC2)CC1,-3.41%
7,CCOC(=O)c1c(NC(=O)CNC(C)(C)C)sc2c1CCCCC2,2.92%
8,COC(=O)c1sccc1S(=O)(=O)N1CCCCC1,0.762%
9,O=S(=O)(Nc1ccc(Cl)c(Cl)c1)c1ccc(F)cc1,3.27%
10,O=C(CSc1nnc(-c2ccc(Br)cc2)o1)NCc1ccccc1,-5.6%
11,Cc1ccccc1NC(=O)CN1C(=O)C2C3CCC(C3)C2C1=O (stereo not drawn),-1.79%
12,CC12CN3CC(C)(CN(C1)C3c1ccccc1O)C2 (stereo not drawn),1.62%
13,O=c1/c(=C/c2ccccc2F)sc2nc(-c3cccc(Cl)c3)nn12,5.44%
14,CSc1nc2n(n1)C(c1ccccc1Cl)C1=C(O)CC(C)(C)CC1=N2 (stereo not drawn),-3.37%
15,CNC(=O)NC1CCCCc2sccc21 (stereo not drawn),7.47%
16,COc1ccc(NC(=O)Nc2cccc(C(F)(F)F)c2)cc1,3%
17,COc1ccc(C(=O)/C=C/c2cccs2)c(OC)c1,5.85%
18,CCCCNS(=O)(=O)c1ccc2nc(-c3cccnc3)cc(C(=O)NCCC3=CCCCC3)c2c1,0.238%
19,CCOC(=O)C1=C(C)N=C(SC)N(C(C)=O)C1c1ccccc1 (stereo not drawn),-2.56%
20,CCOc1ccc(CCNC(=O)Cn2nc(C)n3c(cc4sccc43)c2=O)cc1,-1.58%
21,COc1ccc(C2C=C(c3ccc(Br)s3)Nc3nnnn32)c(OC)c1 (stereo not drawn),3.32%
22,Cc1ccc(-c2csc(NC(=O)CCCC(=O)O)n2)c(C)c1,0.687%
23,Cc1ccc(/C=C2/NC(=O)N(Cc3ccccc3F)C2=O)cc1,-3.63%
24,COCCNC(=O)c1ccc2c(c1)ncn2-c1ccccc1OC,4.35%
25,CCOc1ccc2nc(N3CCC(C(=O)O)CC3)sc2c1,-5.15%

# Source: article PMC6919601, “Identification of Plasmodium dipeptidyl aminopeptidase allosteric inhibitors by high throughput screening” (PLoS ONE, 2019)
